# Results: article PMC4336329 (PLoS ONE, 2015)
# Out of some 310,000 compounds screened, about 2,200 (0.71%) showed an effect of 50% or more. The effect is printed as a negative number. The list shows a part of the results.
# Biological target: human ether-à-go-go-related gene (hERG) potassium channel (human, UniProt Q12809)
# Assay: primary screen, population patch clamp on CHO cells stably expressing hERG
# Chain of human ether-à-go-go-related gene (hERG) potassium channel (Q12809 whole entry, looked up): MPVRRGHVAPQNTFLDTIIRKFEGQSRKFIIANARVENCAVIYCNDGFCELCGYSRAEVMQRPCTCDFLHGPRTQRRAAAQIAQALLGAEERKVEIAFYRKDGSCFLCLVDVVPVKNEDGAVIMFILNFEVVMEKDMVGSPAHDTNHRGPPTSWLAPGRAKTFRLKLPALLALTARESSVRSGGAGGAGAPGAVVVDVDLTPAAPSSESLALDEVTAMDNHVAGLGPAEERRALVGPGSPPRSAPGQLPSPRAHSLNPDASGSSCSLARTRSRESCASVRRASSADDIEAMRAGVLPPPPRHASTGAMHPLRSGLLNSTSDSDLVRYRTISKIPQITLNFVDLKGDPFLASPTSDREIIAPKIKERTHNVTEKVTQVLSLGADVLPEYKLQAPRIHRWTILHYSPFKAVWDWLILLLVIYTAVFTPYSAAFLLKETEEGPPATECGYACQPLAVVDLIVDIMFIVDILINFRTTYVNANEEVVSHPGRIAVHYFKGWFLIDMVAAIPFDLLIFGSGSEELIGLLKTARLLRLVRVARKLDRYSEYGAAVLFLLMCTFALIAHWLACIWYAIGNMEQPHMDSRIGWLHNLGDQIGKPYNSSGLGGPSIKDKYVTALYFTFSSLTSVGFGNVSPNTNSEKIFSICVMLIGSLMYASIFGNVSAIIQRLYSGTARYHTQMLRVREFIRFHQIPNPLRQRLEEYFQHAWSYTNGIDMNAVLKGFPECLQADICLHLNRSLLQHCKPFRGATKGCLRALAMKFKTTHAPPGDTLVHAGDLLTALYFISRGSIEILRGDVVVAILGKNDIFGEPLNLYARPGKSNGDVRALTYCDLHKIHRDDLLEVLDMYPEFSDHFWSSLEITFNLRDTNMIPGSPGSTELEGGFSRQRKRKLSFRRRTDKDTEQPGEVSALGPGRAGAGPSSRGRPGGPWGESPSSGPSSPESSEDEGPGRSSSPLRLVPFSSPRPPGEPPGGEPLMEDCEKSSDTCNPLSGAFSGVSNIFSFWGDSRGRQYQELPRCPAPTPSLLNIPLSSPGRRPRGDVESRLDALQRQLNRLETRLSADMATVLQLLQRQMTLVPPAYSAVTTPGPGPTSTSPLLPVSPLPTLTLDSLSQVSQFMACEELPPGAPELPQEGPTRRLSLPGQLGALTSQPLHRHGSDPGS
row,SMILES,"hERG current change (%, negative = inhibition) at 1uM [%]"
1,COCc1cc(C)n(CC(=O)Nc2ccc3c(c2)OCO3)c(=O)c1C#N,16.2
2,CN(C)c1ccc(NC(=O)CN2CCC(O)(c3ccccc3)CC2)cc1,1.15
3,COc1ccc(CN(C)C(C)C(=O)Nc2ccc(S(=O)(=O)N3CCCC3)cc2)c(OC)c1OC (stereo not drawn),14.1
4,Cc1ccc(C)c(OCc2cc(C(=O)N3C[C@@H](C)O[C@@H](C)C3)no2)c1,7.44
5,CC(C)n1cc(CN2CCC(Oc3ccc(C(=O)N4CCCC4)cc3)CC2)cn1,3.44
6,CCC(=O)Nc1ccccc1Nc1cc(C#N)c(C#N)cc1[N+](=O)[O-],9.3
7,COc1cccc(N(CC(=O)NCc2cccnc2)S(C)(=O)=O)c1,8.02
8,Oc1ccc(/C=N/Nc2ncc(Cl)cc2Cl)cc1,6.99
9,O=C(Nc1ncn[nH]1)C(F)(F)C(F)F,-1.52
10,O=C(CN1CCOCC1)Nc1ncc(Br)cc1Br,4.34
11,O=C1CC(c2ccccc2Cl)Cc2c1cnn2-c1nc2ccccc2s1 (stereo not drawn),16.3
12,O=C(CN1C(=O)c2ccccc2S1(=O)=O)N1CCc2ccccc2C1,-5.32
13,O=C(C1CCN(S(=O)(=O)c2cccnc2)CC1)N1CCN(c2cccc(Cl)c2)CC1,-6.13
14,O=S(=O)(/N=C(/Nc1ccc(F)cc1F)c1ccc(Cl)cc1)c1ccccc1,0.585
15,Cc1cccc(C2CC(c3ccc(Cl)cc3)Nc3nc(N)nn32)c1 (stereo not drawn),-1
16,O=C1CN(c2nc(-c3ccccc3)c3cc(Br)ccc3n2)c2ccccc2N1,11.2
17,O=C1c2cccc3cccc(c23)N1Cc1cccc(F)c1,21.6
18,COc1ccc(-n2c(C)cc(C(=O)CN3C(=O)NC4(CCCc5sccc54)C3=O)c2C)cc1 (stereo not drawn),4.27
19,O=C(CCNc1ccc(Cc2ccncc2)cc1)c1cccc([N+](=O)[O-])c1,5.39
20,CN(C)CCSc1nc(N)c2c3c(sc2n1)CN(C)CC3,5.58
21,O=C(N=Nc1c(O)[nH]c2ccc([N+](=O)[O-])cc12)c1cc(-c2ccccc2Cl)nc2ccccc12,7.27
22,CC1=NOC(=O)/C1=C/c1ccc(O)cc1,16.7
23,COc1ccccc1CNC(=O)C1CCC(=O)N(CCCN2CCCC2=O)C1 (stereo not drawn),13.2
24,CCCN1C(=O)CC(c2ccco2)Sc2ccccc21 (stereo not drawn),12.5
